Assay results as given in PMC4595643, “Pathways of allosteric regulation in Hsp70 chaperones” (Nature Communications, 2015).
Blank lines part the entries; values can stand above or below the binder they belong to. Ends that are not written are not given here. * marks the point of attachment. IAANS = 2-(4'-(iodoacetamido)anilino)naphthalene-6-sulfonic acid label, O=C(C*)Nc1ccc(Nc2ccc3cc(S(=O)(=O)O)ccc3c2)cc1

Target: T1, IAANS-labelled peptide σ32-Q132-Q144-C (E. coli)
T1 construct: residues Q132-Q144 of σ32, the E. coli heat shock transcription factor; cysteine added at the C-terminus of the peptide (the '-C' of its name); also called 2-(4'-(iodoacetamido)anilino)naphthalene-6-sulfonic acid labelled σ32-Q132-Q144-C; substrate
T1 peptide: QRKLFFNLRKTKQC(IAANS)
Assay: fluorescence dissociation kinetics (chase with unlabelled peptide); in the presence of ATP; 0.5 μM DnaK and 0.5 μM IAANS-labelled peptide pre-incubated at least 30 min, then mixed with 50-fold excess of unlabelled peptide; HKM buffer, 30 °C; stopped flow
Conditions: both partners purified

- peptide dissociation rate with ATP relative to DnaKwt: 3 % of DnaKwt
B1: DnaK-F146A (natural protein)
chain: not shown
notes: DnaK, the Hsp70 of Escherichia coli, Phe146 replaced by alanine; source: E. coli ΔdnaK52 cells (BB1553), purified (Ni-IDA, Resource Q), nucleotides removed

- peptide dissociation rate with ATP relative to DnaKwt: 27 % of DnaKwt
B2: DnaK-Y145A (natural protein)
chain: not shown
notes: DnaK, the Hsp70 of Escherichia coli, Tyr145 replaced by alanine; source: E. coli ΔdnaK52 cells (BB1553), purified (Ni-IDA, Resource Q), nucleotides removed
